# Results from PubChem BioAssay AID588342 (National Center for Advancing Translational Sciences (NCATS), 2011).
# The campaign covered roughly 360,000 compounds. About 25,000 (6.9%) were called active. The shares of active, inactive and inconclusive entries below differ from those in the screen. Calls come from the whole dose curve; as a rule, active = well fitted inhibition curve with a large enough effect; inconclusive = small, poorly fitted or top-dose-only effect; inactive = flat fitted curve, though single readings scatter. Potencies beside an inconclusive call are fits to weak or partial responses and may not hold up.
# Target: Luciferin 4-monooxygenase (Photinus pyralis) (UniProt P08659)
# Sequence of UniProt P08659 (P08659 whole entry, looked up): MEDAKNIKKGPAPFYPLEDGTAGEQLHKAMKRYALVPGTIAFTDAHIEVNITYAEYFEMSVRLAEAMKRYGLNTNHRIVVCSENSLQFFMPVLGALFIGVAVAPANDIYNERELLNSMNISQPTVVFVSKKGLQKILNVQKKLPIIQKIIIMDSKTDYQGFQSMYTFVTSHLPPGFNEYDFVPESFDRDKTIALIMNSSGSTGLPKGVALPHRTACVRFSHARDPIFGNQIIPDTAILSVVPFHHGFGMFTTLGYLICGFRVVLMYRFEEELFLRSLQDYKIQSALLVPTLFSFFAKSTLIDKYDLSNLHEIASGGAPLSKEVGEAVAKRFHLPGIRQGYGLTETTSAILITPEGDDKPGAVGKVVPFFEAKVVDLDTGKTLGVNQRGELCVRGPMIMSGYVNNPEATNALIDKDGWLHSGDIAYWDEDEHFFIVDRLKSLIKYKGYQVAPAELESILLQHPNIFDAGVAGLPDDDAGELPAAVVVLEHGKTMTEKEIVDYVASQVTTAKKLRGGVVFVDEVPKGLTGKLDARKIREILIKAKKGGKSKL
# Assay: qHTS profiling assay for firefly luciferase inhibitor/activator using purifed enzyme and Km concentrations of substrates (counterscreen for miR-21 project); note: nearly all actives have a fitted effect of over 55% in size;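 for activity change, negative = inhibition: plate controls were vehicle for no effect and reference inhibitor for full effect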
# Details: purified FLuc, luminescence inhibition; series mostly up to 57.5 µM; activity change, negative = inhibition: at the top concentration
# Method in brief: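 Purified P. pyralis luciferase (10nM final) with 10uM D-luciferin and 10uM ATP (Km levels) in 50mM Tris acetate pH 7.5, 10mM Mg acetate, 0.01% Tween-20, 0.05% BSA; qHTS 6-point titration, ~60 µM downward; luminescence read.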
# Potency is the fitted concentration of half-maximal effect; tags give direction and shape of the fitted curve.
SMILES,"activity change, negative = inhibition",Potency
CCCCN(Cc1cc2cc(C)ccc2[nH]c1=O)C(=O)c1cccc(Cl)c1,inactive: 0.337%,
COCCn1c(C)cc(C(=O)COC(=O)CNC(=O)c2ccccc2)c1C,,"inconclusive: 19 µM [inhibitor, partial curve]"
COc1cc(SC)ccc1C(=O)Nc1nc(C)cc(C)n1,,"inconclusive: 30.1 µM [inhibitor, single point]"
c1ccc(CCn2nnnc2C(c2cccnc2)N2CCN(c3nc4ccccc4s3)CC2)cc1 (stereo not drawn),inactive: -0.516%,
CC(=O)N1CCCc2ccc(NC(=O)c3ccc(OC(C)C)cc3)cc21,,"inconclusive: 16.9 µM [inhibitor, partial curve]"
Cc1cccc(NC(=O)CSc2cn(CC(=O)N3CCOCC3)c3ccccc23)c1C,inactive: -1.47%,
COc1ccc(-c2cc(C(F)F)n3ncc(C(=O)NCC4CCCO4)c3n2)cc1 (stereo not drawn),inactive: 8.17%,
Cc1cccc(Oc2ccc(NC(=O)C3=CC=CN4CCS(=O)(=O)N=C34)cc2)c1,,"inconclusive: 21.3 µM [inhibitor, single point]"
Cc1nn(C)c(Sc2ccccc2N)c1[N+](=O)[O-],,"inconclusive: 26.9 µM [inhibitor, single point]"
Cc1nc(NC(=O)c2ccc3c(c2)OCCO3)ccc1Br,,active: 1.51 µM
Cc1ccccc1N(CC(=O)NC1CCCC1)C(=O)c1oc(C(C)(C)C)cc1C,inactive: 9.2%,
COc1ccc(-n2nc(C(=O)NCC(=O)N3CCC(C)CC3)c3ccccc3c2=O)c(OC)c1,,active: 1.51 µM
Cc1ccc(C(=O)/C=C/c2ccco2)c(O)c1,,active: 9.53 µM
COc1ccccc1[C@@]1(C)ON(c2ccccc2C(F)(F)F)C1=O,inactive: 3.63%,
Cc1ccc(C(=O)CSc2nc(C)cc(C)c2C(=O)Nc2cccc(C)c2)cc1,inactive: -12.6%,
COc1cccc(CNC(=O)C2CCCN(c3nnc(-n4c(C)ccc4C)s3)C2)c1OC (stereo not drawn),inactive: -1%,
O=C(CSc1nnc(-c2ccncc2)o1)Nc1cccc(F)c1,inactive: 2.19%,
CCn1c2ccccc2c2cc(NC(=O)COC(=O)c3ccccc3F)ccc21,inactive: -0.621%,
Cc1ccccc1N=Nc1c(O)n(C)c2ccccc12,inactive: -16.2%,
CS(=O)(=O)c1[nH]nc(-c2cccc(Cl)c2)c1C#N,,"inconclusive: 33.8 µM [inhibitor, partial curve, poor fit]"
Cc1ccc(-n2nnc3c(SCC(=O)NCC4CCCO4)ncnc32)cc1 (stereo not drawn),,active: 5.36 µM
Cc1cccc(NC(=O)CSc2n[nH]c(-c3ccncc3)n2)c1,,"inconclusive: 15.1 µM [inhibitor, partial curve, poor fit]"
CC(C)C/C=C1\CCc2c([nH]c3ccccc23)C1=O,,"inconclusive: 7.57 µM [inhibitor, full curve]"
O=C(c1cccc(Cl)c1)N1CCN(CCCc2ccccc2)CC1,inactive: 2.35%,
O=C(COC(=O)c1ccccn1)Nc1ccc2c(c1)OCO2,,"inconclusive: 23.9 µM [inhibitor, single point]"
CCc1ccc(NC(=O)COC(=O)CCc2nc3cc(S(=O)(=O)N(CC)CC)ccc3n2C)cc1,,"inconclusive: 23.9 µM [inhibitor, partial curve]"

SMILES,"activity change, negative = inhibition",Potency
CC1(C)Cc2nc3nc(SCC(=O)NCc4ccccc4)n(-c4ccccc4)c(=O)c3cc2CO1,inactive: 4.1%,
CC1N/C(=C\C(=O)c2ccccc2)N(O)C1(C)C (stereo not drawn),,active: 8.49 µM
O=C(O)C1CC=CCC1C(=O)N1CC=C(c2ccccc2)CC1 (stereo not drawn),,"inconclusive: 37.9 µM [inhibitor, partial curve, poor fit]"
COC(=O)c1ccc(CSc2ncnc3c2nnn3-c2ccc(F)cc2)o1,,active: 8.49 µM
Cc1ccc(NS(=O)(=O)c2ccc(-c3csc(C)n3)s2)c(C)c1,inactive: -3.58%,
Cc1ccc(Cn2ccnc2SCC(=O)NCc2ccccc2)cc1,inactive: -10.6%,
Cc1ccc(NC(=O)c2ccc3c(c2)NC(=O)c2ccccc2S3)c(Cl)c1,inactive: -3.3%,
Cc1nn(CC(=O)NC2CC2)c(=O)c2cc3cc(F)ccc3n12,inactive: -3.75%,
O=C(CSc1nnc(SCc2cccc3ccccc23)s1)N=Nc1c(O)[nH]c2ccccc12,inactive: 2.59%,
CCOC(=O)N1CCC(NC(=O)c2ccc3c(c2)sc2nc(-c4cccc(OC)c4)cn23)CC1,,"inconclusive: 37.9 µM [inhibitor, partial curve, poor fit]"
CN(C)C=Nc1ncc2c3ccccc3n(CCN(C)C)c2c1C#N,inactive: 2.34%,
Cc1ccccc1N1CCN(C2=NC(=O)/C(=C\c3cccs3)S2)CC1,,active: 9.53 µM
O=C(CCSc1ccccc1)NCCSCc1ccccc1,,active: 21.3 µM
CC(NC(=O)CN(C)Cc1cccc(F)c1)c1ccccc1 (stereo not drawn),,"inconclusive: 4.78 µM [inhibitor, single point]"
Clc1ccc(-c2nnc(COc3ncnc4sccc34)o2)cc1,,"inconclusive: 30.1 µM [inhibitor, partial curve]"
Clc1ccc(C2=CSC3=Nc4cccc5cccc(c45)N23)cc1,,"inconclusive: 12 µM [inhibitor, partial curve, poor fit]"
CCOc1ccc2nc(N3CCCC(C(=O)NCCc4ccc(Cl)cc4)C3)sc2c1 (stereo not drawn),,"inconclusive: 2.69 µM [inhibitor, partial curve, poor fit]"
Cc1cc(N(CCO)CCO)ccc1N=Nc1cc(F)ccc1F,,active: 23.9 µM
COCCCNC(=S)N/N=C/c1ccc(OC)cc1,,"inconclusive: 21.3 µM [inhibitor, partial curve, poor fit]"
COc1ccc(OC)c(NC(=O)N2CCCC(C)C2)c1 (stereo not drawn),,"inconclusive: 37.9 µM [inhibitor, partial curve, poor fit]"
Cc1ccc(-n2ncc3c(NCCCn4ccnc4)ncnc32)cc1C,,"inconclusive: 21.3 µM [inhibitor, partial curve]"
O=C(Nc1nc(-c2ccccn2)cs1)C1CC1,,"inconclusive: 16.9 µM [inhibitor, partial curve]"
COc1cc2c(cc1OC)-c1cc(NC3CCCCCCC3)nc(=O)n1CC2,,"inconclusive: 23.9 µM [inhibitor, single point]"
COCCNC(=S)NNC(=O)c1cc(C2CC2)nc2ccccc12,,active: 12 µM
O=[N+]([O-])c1ccc(/C=C/c2ccncc2)cc1,,"inconclusive: 21.3 µM [inhibitor, single point]"
Cc1ccc(C(=O)Nc2ccccc2N2CCCC2)cc1,inactive: -0.721%,

SMILES,"activity change, negative = inhibition",Potency
COc1ccccc1NC(=O)N1CCN(c2ccc3nnc(-c4ccc(F)cc4)n3n2)CC1,,inactive
COc1ccc(/C=N/OCC(=O)N(Cc2ccccc2)c2ccccc2C(=O)O)cc1,inactive: 1.35%,
COc1ccc(C(=O)Nc2ccc3ncccc3c2)cc1,,active: 0.426 µM
Cc1nn(CCc2nc(-c3ccco3)cs2)c2[nH]c(=O)cc(C(F)(F)F)c12,,"inconclusive: 26.9 µM [inhibitor, single point]"
CCCCCCCc1ccc(-c2ccc(O)cc2)nc1,,active: 19 µM
COc1ccccc1N1CCN(C(=O)c2cc3c(=O)n(Cc4cccs4)ccc3nc2C)CC1,inactive: -5.12%,
CCN(c1ccccc1)S(=O)(=O)c1ccc(Cl)c(NC(=O)CSc2nncs2)c1,inactive: -5.84%,
CC(=O)Nc1ccc(Nc2ccc3c4c(cc(=O)n3C)-c3ccccc3C(=O)c24)cc1,,"inconclusive: 10.7 µM [inhibitor, partial curve, poor fit]"
Cc1ccc(Cl)cc1NC1=C/C(=N\S(=O)(=O)c2cccs2)c2ccccc2C1=O,inactive: -3.13%,
COc1ccc(C(=O)Nc2cccc(C(=O)OCc3cc(=O)n4c5c(sc4n3)CCCC5)c2)cc1,,"inconclusive: 1.9 µM [inhibitor, full curve]"
CCCN1C(=O)S/C(=C\c2ccc(N3CCOCC3)o2)C1=O,,"inconclusive: 30.1 µM [inhibitor, single point]"
CN(C)CCOC(=O)c1sc2ccccc2c1Cl,,"inconclusive: 30.1 µM [inhibitor, partial curve, poor fit]"
Cc1cc(-c2nn(-c3ccccc3F)cc2CN2CCCC(CO)C2)c(C)s1 (stereo not drawn),,"inconclusive: 15.1 µM [inhibitor, partial curve]"
CSCc1ccc(C(=O)Nc2cccc(C)c2C)cc1,,active: 12 µM
COc1cc(/C=C2/CCc3ccccc3C2=O)cc(OC)c1OC,,"inconclusive: 37.9 µM [inhibitor, single point]"
CCOC(=O)c1ccc(N2Cc3ccccc3C2=NC(=O)c2ccncc2)cc1,,"inconclusive: 37.9 µM [inhibitor, single point]"
COc1ccc(/C=C/C(=O)Nc2ccncc2)cc1OC,inactive: -2.81%,
COc1ccc(C(CNC(=O)c2cccc3cccnc23)N(C)C)cc1 (stereo not drawn),inactive: 1.04%,
COc1cc(C)ccc1OCCCCN1CC(C)OC(C)C1 (stereo not drawn),inactive: 0.283%,
O=C1C(Cl)=C(Nc2ccc(O)cc2)C(=O)c2ccccc21,,"inconclusive: 37.9 µM [inhibitor, partial curve, poor fit]"
COc1ccc(-n2ncc3c(NCc4ccccn4)ncnc32)cc1,,active: 15.1 µM
Cc1ccc(N2CCN(c3ccc(C)cc3)C(CC(=O)O)C2=O)cc1 (stereo not drawn),,"inconclusive: 23.9 µM [inhibitor, partial curve, poor fit]"
CCC(C)(C)c1nnc(NC(=O)c2cccc([N+](=O)[O-])c2)s1,,active: 19 µM
Cc1ccccc1NC(=O)C1Cc2ccccc2CN1C(=O)c1ccco1 (stereo not drawn),,"inconclusive: 26.9 µM [inhibitor, single point]"
Cc1ccc(/C=N/NC(=O)c2ccncc2)s1,,"inconclusive: 37.9 µM [inhibitor, partial curve, poor fit]"
CCOc1ccccc1C(=O)Nc1cccc(-c2ccc(N3CCOCC3)nn2)c1,,active: 1.51 µM
